# About 75 (2%) of roughly 3,200 compounds showed an effect of 50% or more. The list shows a part of the results.
# System: T1, S. aureus MSSA476
# T1 construct: MSSA476
# Design: species or system S. aureus MSSA476 (TSB) or V. cholerae SAD30 (LB); 384-well bacterial growth screen at 25 uM, OD600 relative to DMSO control
# Settings: relative growth, OD600, TSB; 25 µM; inhibitor
row,SMILES,% of control remaining
1,"CCC(C)c1ccccc1NC(=O)CCl (stereo not drawn) [6-K11, N-[2-(butan-2-yl)phenyl]-2-chloroacetamide]",101.415%
2,"COCC(NC(=O)C(C)Cl)c1cccc(C#N)c1 (stereo not drawn) [6-L19, 2-chloro-N-[1-(3-cyanophenyl)-2-methoxyethyl]propanamide]",110.634%
3,"O=C(CCl)N(Cc1ccco1)C12CC3CC(CC(C3)C1)C2 [4-J18, N-(adamantan-1-yl)-2-chloro-N-[(furan-2-yl)methyl]acetamide]",116.246%
4,"O=C(CCl)NCC1CCN(C(=O)c2ccccc2)CC1 [7-L06, N-[(1-benzoylpiperidin-4-yl)methyl]-2-chloroacetamide]",77.865%
5,"C=CC(=O)N(Cc1cc(C)c2ncccc2c1)C(C)C1CCCO1 (stereo not drawn) [1-P15, N-[(8-methylquinolin-6-yl)methyl]-N-[1-(oxolan-2-yl)ethyl]prop-2-enamide]",82.6374%
6,"CC(Cl)C(=O)NCCNC(=O)c1ccoc1 (stereo not drawn) [7-E21, 2-chloro-N-{2-[(furan-3-yl)formamido]ethyl}propanamide]",108.32%
7,"C=CC(=O)NCCc1coc(-c2ccc(C)cc2)n1 [1-M06, N-{2-[2-(4-methylphenyl)-1,3-oxazol-4-yl]ethyl}prop-2-enamide]",103.033%
8,"O=C(CCl)c1ccc(F)cc1F [10-I18, 2-chloro-1-(2,4-difluorophenyl)ethan-1-one]",136.563%
9,"C=CC(=O)NCC1CN(Cc2cccc(C)c2)CCO1 (stereo not drawn) [3-A05, N-({4-[(3-methylphenyl)methyl]morpholin-2-yl}methyl)prop-2-enamide]",87.4184%
10,"CCCNC(=O)C(C#N)=Cc1ccc(-n2cncn2)c(C)c1 [9-C05, 2-cyano-3-[3-methyl-4-(1H-1,2,4-triazol-1-yl)phenyl]-N-propylprop-2-enamide]",106.966%
11,"C=CC(=O)NCc1cc(Cl)c2c(c1)OCO2 [2-F15, N-[(7-chloro-1,3-dioxaindan-5-yl)methyl]prop-2-enamide]",114.534%
12,"C=CC(=O)NC(C)c1ccc2c(c1)CCC2 (stereo not drawn) [3-F09, N-[1-(2,3-dihydro-1H-inden-5-yl)ethyl]prop-2-enamide]",109.012%
13,"CC(Cl)C(=O)N1CCN(C(=O)Cc2cccc(Cl)c2)C(C)C1 (stereo not drawn) [7-E20, 2-chloro-1-{4-[2-(3-chlorophenyl)acetyl]-3-methylpiperazin-1-yl}propan-1-one]",99.843%
14,"O=C(CCl)NC1CCN(C(=O)c2ccco2)c2ccccc21 (stereo not drawn) [5-O07, 2-chloro-N-[1-(furan-2-carbonyl)-1,2,3,4-tetrahydroquinolin-4-yl]acetamide]",112.933%
15,"CC(Cl)C(=O)N1CCOC(c2ccnc(N(C)C)n2)C1 (stereo not drawn) [6-L05, 2-chloro-1-{2-[2-(dimethylamino)pyrimidin-4-yl]morpholin-4-yl}propan-1-one]",76.1463%
16,"O=C(CCl)NCCc1c[nH]c2c(F)c(F)c(F)cc12 [7-H16, 2-chloro-N-[2-(5,6,7-trifluoro-1H-indol-3-yl)ethyl]acetamide]",86.3422%
17,"CC(Cl)C(=O)N1Cc2cnn(C)c2C1 (stereo not drawn) [7-K09, 2-chloro-1-{1-methyl-1H,4H,5H,6H-pyrrolo[3,4-c]pyrazol-5-yl}propan-1-one]",97.6452%
18,"O=C(CCl)c1cc(Cl)sc1Cl [10-D16, 2-chloro-1-(2,5-dichlorothiophen-3-yl)ethan-1-one]",79.375%
19,"Cc1cc(C(=O)CCl)c(C)[nH]1 [10-J08, 2-chloro-1-(2,5-dimethyl-1H-pyrrol-3-yl)ethan-1-one]",109.688%
20,"O=C(CCl)NCCC1CCCC1(F)F (stereo not drawn) [7-P04, 2-chloro-N-[2-(2,2-difluorocyclopentyl)ethyl]acetamide]",128.414%
21,"C=CC(=O)N1CCC(C(=O)NCc2ncc(N(C)C)cn2)CC1 [3-L03, N-{[5-(dimethylamino)pyrimidin-2-yl]methyl}-1-(prop-2-enoyl)piperidine-4-carboxamide]",91.2495%
22,"N#CC(=Cc1csc2ccccc12)C(=O)NCc1ccco1 [9-D16, 3-(1-benzothiophen-3-yl)-2-cyano-N-[(furan-2-yl)methyl]prop-2-enamide]",104.27%
23,"C=CC(=O)NC(c1ccc(F)cc1)c1ccccn1 (stereo not drawn) [3-N14, N-[(4-fluorophenyl)(pyridin-2-yl)methyl]prop-2-enamide]",82.8907%

row,SMILES,% of control remaining
1,"C#CCN(C(=O)c1ccc(NC(=O)C=C)cc1)C1CCCCC1 [3-D13, N-cyclohexyl-4-(prop-2-enamido)-N-(prop-2-yn-1-yl)benzamide]",117.37%
2,"CC(NC(=O)C(C#N)=Cc1cccc(Cl)c1Cl)c1ccccc1 (stereo not drawn) [9-N04, 2-cyano-3-(2,3-dichlorophenyl)-N-(1-phenylethyl)prop-2-enamide]",0.5993%
3,"O=C(CCl)N(Cc1ccc2c(c1)CCO2)C1CCCC1 [6-L11, 2-chloro-N-cyclopentyl-N-[(2,3-dihydro-1-benzofuran-5-yl)methyl]acetamide]",91.5122%
4,"CSc1ccc(C=C(C#N)C(=O)Nc2c(C)cc(C)cc2C)cc1 [8-G15, 2-cyano-3-[4-(methylsulfanyl)phenyl]-N-(2,4,6-trimethylphenyl)prop-2-enamide]",97.9253%
5,"O=C1C=CC(=O)N1c1ccc(OC(F)(F)F)cc1 [10-J19, 1-[4-(trifluoromethoxy)phenyl]-2,5-dihydro-1H-pyrrole-2,5-dione]",5.9375%
6,"CC(=O)c1ccc(S(=O)(=O)N2CCN(C(=O)CCl)CC2)cc1 [5-P16, 1-[4-(4-acetylbenzenesulfonyl)piperazin-1-yl]-2-chloroethan-1-one]",107.104%
7,"N#CC(=Cc1ccc(F)cc1)C(=O)Nc1cccc2ncccc12 [9-C21, 2-cyano-3-(4-fluorophenyl)-N-(quinolin-5-yl)prop-2-enamide]",75.5056%
8,"CC(=O)NCCc1cc(C(=O)CCl)ccc1F [10-O05, N-{2-[5-(2-chloroacetyl)-2-fluorophenyl]ethyl}acetamide]",128.438%
9,"N#CC(C(=O)N1CCCCC1)=C1N=C(N)c2ccccc21 [9-A21, 2-(3-amino-1H-isoindol-1-ylidene)-3-oxo-3-(piperidin-1-yl)propanenitrile]",97.9775%
10,"Cn1c(=O)oc2cc(C(=O)CCl)ccc21 [10-F07, 6-(2-chloroacetyl)-3-methyl-2,3-dihydro-1,3-benzoxazol-2-one]",93.125%
11,"Cn1c(N)c(C(=O)CCl)c(=O)[nH]c1=O [10-I16, 6-amino-5-(2-chloroacetyl)-1-methyl-1,2,3,4-tetrahydropyrimidine-2,4-dione]",115.938%
12,"N#CC(=Cc1sc2ccccc2c1Cl)C(=O)NC1CC1 [9-C18, 3-(3-chloro-1-benzothiophen-2-yl)-2-cyano-N-cyclopropylprop-2-enamide]",110.262%
13,"CC(Cl)C(=O)Nc1ccc2oc(=O)n(CCN(C)C)c2c1 (stereo not drawn) [5-L19, 2-chloro-N-{3-[2-(dimethylamino)ethyl]-2-oxo-2,3-dihydro-1,3-benzoxazol-5-yl}propanamide]",100.182%
14,"CN(CC(=O)Nc1ccccc1Cl)C(=O)CCl [4-D05, 2-chloro-N-{[(2-chlorophenyl)carbamoyl]methyl}-N-methylacetamide]",122.344%
15,"C=CC(=O)NCc1nnc(C2CCOCC2)[nH]1 [2-M22, N-{[5-(oxan-4-yl)-4H-1,2,4-triazol-3-yl]methyl}prop-2-enamide]",86.6841%
16,"C=CC(=O)NCC1CCCc2nccn21 (stereo not drawn) [2-B15, N-({5H,6H,7H,8H-imidazo[1,2-a]pyridin-5-yl}methyl)prop-2-enamide]",128.46%
17,"O=C(CCl)Nc1ccccc1Sc1ccc(Cl)cc1 [4-O13, 2-chloro-N-{2-[(4-chlorophenyl)sulfanyl]phenyl}acetamide]",116.246%
18,"CCCCNC(=O)C(C#N)=Cc1c(Cl)cccc1Cl [9-J11, N-butyl-2-cyano-3-(2,6-dichlorophenyl)prop-2-enamide]",79.4007%
19,"Cc1cc(C(=O)CCl)c(C)n1-c1ccc(Cl)c(C(F)(F)F)c1 [10-L18, 2-chloro-1-{1-[4-chloro-3-(trifluoromethyl)phenyl]-2,5-dimethyl-1H-pyrrol-3-yl}ethan-1-one]",0.3125%
20,"C=CCNC(=O)C(C#N)=Cc1cnn(-c2ccc(Cl)cc2)c1 [9-M16, 3-[1-(4-chlorophenyl)-1H-pyrazol-4-yl]-2-cyano-N-(prop-2-en-1-yl)prop-2-enamide]",84.4944%
21,"N#CC(=Cc1cc(F)ccc1F)C(=O)Nc1ccc2c(c1)OCCO2 [8-I10, 2-cyano-3-(2,5-difluorophenyl)-N-(2,3-dihydro-1,4-benzodioxin-6-yl)prop-2-enamide]",86.639%
22,"C=CC(=O)N1CCC(C(=O)Nc2n[nH]c3cc(C#N)c(C)cc23)CC1 [3-J18, N-(6-cyano-5-methyl-1H-indazol-3-yl)-1-(prop-2-enoyl)piperidine-4-carboxamide]",113.539%
